Results taken from the RNAGym collection of RNA variant scans (doi:10.1073/pnas.2313332121).
This sample is rich in variants without activity.

B1: TPR 5TU (parent)
chain: GGAUCUUCUCGAUCUAACAAAAAAGACAAAUCUGCCACAAAGCUUGAGAGCAUCUUCGGAUGCAGAGGCGGCAGCCUUCGGUGGCGCGAUAGCGCCAACGUUCUCAACUAUGACACGCAAAACGCGUGCUCCGUUGAAUGGAGUUUAUCAUG

Variants of: B1
Assay: polymerase ribozyme fitness, log enrichment relative to wild type (log ratio); higher = more active; in vitro selection for triplet polymerase activity
Procedure, shortened: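 Libraries of mutants in each subunit of a heterodimeric triplet polymerase ribozyme were generated by PCR and transcribed. In triplicate, each went through one in vitro selection round: annealing with biotinylated primer, partner subunit and triplets; frozen incubation at −7 °C; gel excision of extended constructs; streptavidin-bead capture; RT-PCR. Fitness, taken from Illumina sequencing of input and output libraries, is the logarithm of a genotype's enrichment over wild-type enrichment, averaged across replicates with inverse-variance weights. The logarithm is base 2, and genotypes needed ≥10 input reads and ≥1 read per output to be kept.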

Variant | polymerase ribozyme fitness (log ratio)
U55G G133U | -4.16
U55G U56A C93A C114A | ≤ -4.2
U55C C57G G65C U82G C103A G126A | ≤ -4.2
U56A C99U | -0.614
U56A U90C G92U C103G | ≤ -4.2
U55G C93G C95U C114U A138G G143A | ≤ -4.2
U56A G80A A138U G143C | ≤ -4.2
U55A G67A U127A | ≤ -4.2
U55A U61A C85U C99G C108G | ≤ -4.2
U55G A89G G94A A119U | -1.9
U55G G58C | -0.558
U56A C85G C93G A107U U111G | ≤ -4.2
U56A A73G C76U | 0.764
U56G C79A G80C C118U | ≤ -4.2
U55A G68C U135C | ≤ -4.2
U56A G59U G83A G92U C99A G141C | ≤ -4.2
U55G C63A G71C C76A | ≤ -4.2
U55A G94C G100C A106U A115U | ≤ -4.2
U56A G100U | -4.09
U55G C87G C105G U148G U151C | ≤ -4.2
U56G A64U A107C G143C U145G | ≤ -4.2
U55A U56G C69U G80U C96G | ≤ -4.2
U56A U61G G65A C85A G86A A121U U127A | ≤ -4.2
U56A U78G G92U | ≤ -4.2

Variant | polymerase ribozyme fitness (log ratio)
U55A U77A A98G | ≤ -4.2
U56A G62A A97G C103A | -3.45
U56A A73C G94C | -3.51
U56C C72G U148A | ≤ -4.2
U55G U90G A97G U135G | ≤ -4.2
U56G C85U A106G U109C G143A | ≤ -4.2
U56A U61G A66U G136U A138C G141C U145G | ≤ -4.2
U55A G81A C93U C105A C118U | -3.74
U56A G84U C95U G140C | ≤ -4.2
U55A G68A U77A U135G | ≤ -4.2
U56G A64U G81A G88A C114A A115U G141U | ≤ -4.2
U55A G88A C125U G126A | ≤ -4.2
U56G C69A C85A C96U G143C | ≤ -4.2
U55G A60C C87A U101C A107C G133U | ≤ -4.2
U56A G67A A73G G83A A91G U109C A110U A137U | ≤ -4.2
U56A C76U G88U C129U A138U | ≤ -4.2
U56A C75G C93A A98G A106C G141A | ≤ -4.2
U55G A60G G86A C93A U101G U102A A137U | ≤ -4.2
U55A G81A | -1.9
U55A U90G U135C | ≤ -4.2
U56C G58U C114U A119U | -1.67
U56A A89G C99A | -1.89
U56G C93U A107G A120U | -4.12
U55G G83A | -0.31

Variant | polymerase ribozyme fitness (log ratio)
U55A U56A U78C G83U A89U | -0.955
U56A A91G C95U C105G A120G | -3.49
U55A G94C C103G | ≤ -4.2
U56A C96U G100A U104G | ≤ -4.2
U55A G67A G71U | ≤ -4.2
U56A C75A G136A U151G | ≤ -4.2
U55A G68C U78G C108G U139A | ≤ -4.2
U56A C79G C85G | ≤ -4.2
U55G A60G A73U U127G | ≤ -4.2
U56G C69U A73U U134C G141U U146A | -2.72
U56C G143U | -2.95
U56A G59C G68A A91G C93U A106C | ≤ -4.2
U55A G83U A106U | ≤ -4.2
U55A G83A G124A | -0.748
U55A G71A A91G C123U G136C | ≤ -4.2
U55G G83A C103U U135A | -2.23
U56G C85A | -2.05
U55C G62A A64C C72G G140U U144A | ≤ -4.2
U56A G59A C87G U90G A137U G143C U146C | ≤ -4.2
U56A U82G G94A A120G U135C U139A | ≤ -4.2
U55G C93U | -1.83
U55G C93G | -4.19
U56A C79U C103G G141A | ≤ -4.2
U55G U56G C72G A119U G128C C132G | ≤ -4.2

Variant | polymerase ribozyme fitness (log ratio)
U55A G71U C96G G143C C149U | ≤ -4.2
U56G A64G C72U C129A G140A | ≤ -4.2
U56A G58C C79G C87U | ≤ -4.2
U56G A60G G84A | -0.664
U56A C69U C129U | -0.94
U55G G92C | -0.157
U55G G92A | -3.13
U56A U90C U144G | -3.91
U56A A91U A121U U144A | ≤ -4.2
U56A G83A C108U G133A | ≤ -4.2
U56C U82G | -0.541
U55A U56A G92U A97U A98G A110U | ≤ -4.2
U55G A89U A138G U151G | ≤ -4.2
U56A G67C C93U C103A U130A U148C | ≤ -4.2
U56A G83C C96U U127A | ≤ -4.2
U56A U82G | 0.243
U55A G81C C85G U104G A106G U130G | ≤ -4.2
U55A G92U C96A A119C A121C A142C | ≤ -4.2
U55A G71A G81C C95G C125U | ≤ -4.2
U55A U82G C96G C116U G140C | -4.17
U56A C85U A91U C95U U104G U134C | ≤ -4.2
U56C G94C | 0.00198
U56A U82A A137C G141C | ≤ -4.2
U56G G58A G83C G86U | ≤ -4.2

Variant | polymerase ribozyme fitness (log ratio)
U56G A73G C87G U101C A115C G140U | ≤ -4.2
U56A C75A C96U U104C | ≤ -4.2
U56C C87U | -1.06
U55G C108G G133U A142C | -4.19
U56A C69U A73C A91C | ≤ -4.2
U56A C76U | 0.105
U55A G74A G83C A91C A113U | ≤ -4.2
U55A U56A G80U U111A | ≤ -4.2
U56A C95A | -0.487
U56C G83A C87G C123U G141A | ≤ -4.2
U56A A60U C93A U109G A113U U139G U145C A147G | ≤ -4.2
U56A G68U G83C G117A A119U G140A | ≤ -4.2
U55A G100U C125G | ≤ -4.2
U56A U102G | -2.4
U55A G84A G143A | -0.776
U55A G126U G140U A142C | ≤ -4.2
U56C C93U | -1.53
U56C C76A A91U A97G G140A G141U | ≤ -4.2
U56A G68A C103U U148A | ≤ -4.2
U55A G83A U90A G92A A98U G140C | ≤ -4.2
U56A C79U G83A | ≤ -4.2
U56A G80A U90A | ≤ -4.2
U55C C85A A91C G126A | -4.06
U55G G84U A106G | -1.26

Variant | polymerase ribozyme fitness (log ratio)
U56A U102G G141U U145C A150U | ≤ -4.2
U56A G92C C96A U148A | ≤ -4.2
U55A U101G A115G C123U G143C U148C | ≤ -4.2
U56A C125G | -1.56
U55A G141A G143U U144G | ≤ -4.2
U55A U144C | 0.176
U56A G67U G84A A107U G133U G141C | ≤ -4.2
U56A C57A C85U C87U U144A U146G | ≤ -4.2
U55G U56A A60U G80A G88A A110C | ≤ -4.2
U56A G65A G94C A150U | -1.57
U56C C93U C114G A119G | -3.79
U56A U61A C76G G84A C103G | ≤ -4.2
U55A G70A C76U G92U C99U A138C G140A | ≤ -4.2
U55G C87A G136C | ≤ -4.2
U56A G71A U82C A91C C108U G143C | ≤ -4.2
U55A G84A G117U U145G | ≤ -4.2
U56A C95A C103G C132A U146A | ≤ -4.2
U56A G92C U139A G140U | -3.76
U55A U56C G84U G92A A110G | ≤ -4.2
U55A U56A A66C G70C C108U | ≤ -4.2
U55G C85A C118G C149G | ≤ -4.2
U55G C85A A91G A120U G141A | ≤ -4.2
U55A G83A | -0.501
U56A G86A C96U U111A G136U A147U | ≤ -4.2

Variant | polymerase ribozyme fitness (log ratio)
U56A G65U C72A C87G C93U | ≤ -4.2
U55G G59U G67C U77A C96G C129U | ≤ -4.2
U56A C96A G100C | ≤ -4.2
U55G C75G C76G G84U C118A U139C | ≤ -4.2
U55G C96A C105U | -0.496
U55A U77A G80C C103A A110G G126U | ≤ -4.2
U56A G68U G81C U145A | ≤ -4.2
U56A G74C A122G | ≤ -4.2
U55G G68A A73C C125U C132U | ≤ -4.2
U55A U56A C69U C79U G86A A91U A106C A121G C125U A142C | ≤ -4.2
U56G A73G C87A G94U C118U | ≤ -4.2
U55A U102C U127A A138G | ≤ -4.2
U56C C85G U135C A142U G152A | ≤ -4.2
U56A G80C G92A | ≤ -4.2
U55G U61G C76U C87A U101G U134G G136U | ≤ -4.2
U56G C79A G83C U127C G133C | ≤ -4.2
U55G U82A U148C | -2.51
U55A G81C A107G | ≤ -4.2
U55A G65A C103A | ≤ -4.2
U56C G68C C87U C99A | ≤ -4.2
U56A G59U G74C C95U A122C | ≤ -4.2
U55A U56A C87G G141U | ≤ -4.2
U56G C63U C93G | -3.47
